Data: the RNAGym collection of RNA variant scans (doi:10.7554/elife.90254)
Read counts are not given, so values of variants with three or more changes are uncertain.

B1: LINE1-mini (parent)
chain: GGCAGAGCUCAACACAGCGUGGCAAAGUGGCUGUGGCUAGACUGCC

Variants of: B1
Experiment: self-cleavage, relative activity (ratio to wild type); higher = more cleavage; in vitro, sequencing; the parent is a self-cleaving ribozyme

Row | Variant | self-cleavage
1 | G1C C15G A41U C46A | 0.01
2 | G1C A11U A24G U43C | 0
3 | G1A G36U A39U | 0.05
4 | G1A U9C U28C G30C U32A G35U | 0.02
5 | G1C A16G U28C | 0.02
6 | G1C C10U G21U A41U C42A | 0.02
7 | G1C C8G G29U | 0.04
8 | G1C A16C G21U | 0.02
9 | G1C G2A C37U | 0.05
10 | G1C A4U A16C U32A | 0.03
11 | G1C C3G G22A A24U | 0.13
12 | G1A U9A A14U | 0.26
13 | G1C C8A G21U U32A U38G G44A | 0.04
14 | G1C C13A G27U U32C | 0.07
15 | G1C A12U U38A | 0
16 | G1C C10U G17A G19U U32C | 0
17 | G1C A24G C31A G36A | 0.01
18 | G1C C8U A26U | 0
19 | G1C C13U U38C | 0
20 | G1C A4U C15A G44A | 0.03
21 | G1C G2A A25C C37U | 0.06
22 | G1C A25U G29A | 0.06
23 | G1C A12U G17A G35C | 0.02
24 | G1A G40A A41G | 0.15

Row | Variant | self-cleavage
25 | G1A U20C A41U | 0.32
26 | G1C C10U A26U | 0.02
27 | G1C A39C A41U | 0.02
28 | G1C A14U G30U G33U G36U U43C | 0.04
29 | G1C A16G C23G | 0
30 | G1C C8A U9G A14U C18G A25U U32A | 0
31 | G1C A26G C37G C46A | 0
32 | G1C C37U C46U | 0.01
33 | G1C C37U U43C | 0
34 | G1C G2A G7C A25G | 0.1
35 | G1C A6U G19U A41C | 0.05
36 | G1C A14C G29C G40A | 0.01
37 | G1A U9A G17A G35U G36U | 0.08
38 | G1C C23U G30C U34C G36C | 0.01
39 | G1C C15A G17A G27U G30C U32G U43C | 0.01
40 | G1C A6C G19A G27A C37A C46G | 0.01
41 | G1C C3A G7A C31U | 0.22
42 | G1C C10A A14C U32C G44A | 0
43 | G1C C13A A16G C18A U28A G30C A39U | 0.02
44 | G1C A4U A12G A24U | 0.01
45 | G1C A12G C31U G35C G36U C42A | 0
46 | G1A G33U G35U | 0.04
47 | G1A G33U G35C | 0.07
48 | G1C A16G G19A G36C | 0

Row | Variant | self-cleavage
49 | G1C A4U G29A U34A A41C | 0.03
50 | G1C C37U U38A | 0.04
51 | G1C C8U C23G | 0.01
52 | G1A U20A G27A | 0.51
53 | G1C C18U C37G | 0.07
54 | G1C A26G G29U G44C | 0.06
55 | G1C C13U C15A A41U | 0.09
56 | G1C C3G G27C G30C C42A | 0
57 | G1C C3A C10A | 0.11
58 | G1A U34C C37A C45U | 0.02
59 | G1C C15U G27A | 0.26
60 | G1C A4U G30U G40U | 0.02
61 | G1C A26C U34A G40A | 0
62 | G1C C3A G27C | 0.04
63 | G1C C3U G21U G22U U32A | 0.02
64 | G1C C8A A26U | 0.01
65 | G1C A6C C31A C46U | 0.01
66 | G1A U9A C15U G21U A25G | 0.1
67 | G1A U9G C18G A41U G44U | 0.17
68 | G1C C18A A25G | 0.01
69 | G1C C18A A25C | 0
70 | G1C A6G G17A G35C U43A C46U | 0.02
71 | G1C C10U A12C G21A G30U C45U | 0
72 | G1C A4U C8U C10U C23U U38C | 0.02

Row | Variant | self-cleavage
73 | G1A U9G G40A | 0.08
74 | G1C G2A G17U | 0.01
75 | G1C C37U A39U | 0.06
76 | G1A G36U C37A | 0.1
77 | G1A G33A C37A | 0.05
78 | G1C C3G U28A | 0.11
79 | G1C C10G A16U | 0
80 | G1C C10A C15G C31G | 0.02
81 | G1C C3A G21C G22C C37A A39G | 0.02
82 | G1C A16C G36A | 0.01
83 | G1C C18A A24C G35A G36C | 0
84 | G1C C8A G22A | 0.04
85 | G1C C15G G17U G22A U38C | 0.01
86 | G1C A12C G29U A39C A41U | 0
87 | G1C C13A C15G | 0
88 | G1C A4G A12C | 0.01
89 | G1A U9C C10A C31U | 0.07
90 | G1C C13G C18G G19C G40C | 0.01
91 | G1C C3G G5A A39U G44U C45U | 0.03
92 | G1C C10A A11U C23A A26G U34A G44A | 0.01
93 | G1C A12U C18A | 0.03
94 | G1C A4C A26U G27A U34A | 0.04
95 | G1C C13U C23G U32C G40C | 0.06
96 | G1C C13U A41G | 0.01

Row | Variant | self-cleavage
97 | G1C A4C C13A | 0.03
98 | G1A U9A G17C G27C | 0.08
99 | G1C A12G G40U | 0
100 | G1C C3U A4C G40C | 0.02
101 | G1A G33C G36C G40A | 0.08
102 | G1C A6C A11C A12G C23A A41U | 0.01
103 | G1C C3G C8G C13A G22U | 0.03
104 | G1C C3A C8A G19U G30C G35A G44C | 0.96
105 | G1C C3G C45A | 0.39
106 | G1C C3A C23U C37U | 0.12
107 | G1C C13U G17C G21A G22A A25C | 0.02
108 | G1C A4U A24C U32A A39C | 0.02
109 | G1C C18U G33U C46G | 0.01
110 | G1A U9C C15U | 0.07
111 | G1C C3U G29U | 0.29
112 | G1C C8G A26C G40A | 0.03
113 | G1C A16G G22U G30U C46A | 0
114 | G1A U28G U34C C45U | 0.04
115 | G1A U28G A41C | 0.05
116 | G1C C18A A26G G27A | 0.01
117 | G1C C3A G5C C18U U32G G36C | 0.05
118 | G1A G30U C31U A41C | 0.04
119 | G1C A16U G17C A25U G29C G33A C37A G44U C46G | 0
120 | G1C C8U A16G G22C | 0.01

Row | Variant | self-cleavage
121 | G1C A4U C8A C18A C42A | 0.06
122 | G1A U28G G29U G36C | 0.11
123 | G1A G30U A41U | 0.36
124 | G1C C8G A12C G17A G44C | 0.01
125 | G1C A4G C15U C37A G40A | 0.28
126 | G1C C8G G17A G21U C45A | 0
127 | G1C C3G G7C G19A G22C C23U | 0.08
128 | G1C A6C C10A A26G G36U | 0.02
129 | G1C A11C A16G C46U | 0.02
130 | G1C A12U G17A U20A G30U G33U | 0
131 | G1C A12C G29A | 0.01
132 | G1C C10A C18A G33C | 0
133 | G1C A4G C10U G22C G30U G33A | 0.02
134 | G1C C18A G29C G30U G40U C46A | 0.01
135 | G1C A6G C15A G17A A25G G33A | 0.01
136 | G1C C3A A14C | 0.16
137 | G1C A24C C37U | 0.01
138 | G1C C3U A14U A24U A26G U28G | 0.01
139 | G1A U28G C46U | 2.9
140 | G1C A14U U38C | 0.01
141 | G1C C3U G5A A12U A14C G27A | 0.08
142 | G1C A11U G17A | 0
143 | G1A U20G G21U C23G C31A U32A U43A C46U | 0.01
144 | G1C C23U U28C | 0.13

Row | Variant | self-cleavage
145 | G1C A6C G17A G33U | 0.02
146 | G1C C10U G22U A24G | 0.01
147 | G1C C18A A39U | 0.03
148 | G1C A24G C46A | 0.25
149 | G1A U28G G35A | 0.26
150 | G1C C15U G21U | 0.19
151 | G1C C8U C10U C31U G36C | 0.02
152 | G1C C15G U20C G30C C37U C42G | 0
153 | G1C C10A G30C | 0.01
154 | G1C C8G A16U C42G | 0
155 | G1A U9A C10A G21U C37G C45G | 0.03
156 | G1C C3U A25G | 0.06
157 | G1C C3G U38C G44C | 0.34
158 | G1C A16G G22C U28C | 0
159 | G1C A4C G7A C31U | 0
160 | G1C G2A C10A C42A | 0.02
161 | G1C A11C C37G | 0.01
162 | G1A G36U G40U | 0.07
163 | G1C A6C C15A G21U C31U | 0.01
164 | G1C A11U C15A G17A | 0
165 | G1C C18G G29U | 0.18
166 | G1A G30U A39U C45A | 0.28
167 | G1C A14C G36C | 0
